Laboratory results taken from publication PMC9911399, “Two distinct binding modes provide the RNA-binding protein RbFox with extraordinary sequence specificity”.
Changes are numbered by the printed parent chain; changes in the protein carry UniProt numbers. This is one part of the list.

T1: RBFOX1 RRM RbFoxmut (Fox-RRM*) (Homo sapiens, UniProt Q9NWB1 109-208, R118D;E147R;N151S;E152T)
T1 sequence: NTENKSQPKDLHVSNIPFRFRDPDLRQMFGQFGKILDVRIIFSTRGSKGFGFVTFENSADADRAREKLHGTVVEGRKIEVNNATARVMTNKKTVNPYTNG

B1: UAUCACA (DNA:RNA)
RNA: GGGAGACCGGAAUUCAGAUUGUCCUAUCACAUUAAAUCCCGUCGUAGCCACCA
DNA 1: CAATCTGAATTCCGGTCTCCC
DNA 2: TGGTGGCTACGACGGGATT
B2: UGUACGG (DNA:RNA)
RNA: B1 RNA with A26G, C28A, A29C, C30G, A31G
DNA 1: CAATCTGAATTCCGGTCTCCC
DNA 2: TGGTGGCTACGACGGGATT
B3: UCGUAGG (DNA:RNA)
RNA: B1 RNA with A26C, U27G, C28U, C30G, A31G
DNA 1: CAATCTGAATTCCGGTCTCCC
DNA 2: TGGTGGCTACGACGGGATT
B4: AACGGGU (DNA:RNA)
RNA: B1 RNA with U25A, U27C, C28G, A29G, C30G, A31U
DNA 1: CAATCTGAATTCCGGTCTCCC
DNA 2: TGGTGGCTACGACGGGATT
B5: AGACAAU (DNA:RNA)
RNA: B1 RNA with U25A, A26G, U27A, C30A, A31U
DNA 1: CAATCTGAATTCCGGTCTCCC
DNA 2: TGGTGGCTACGACGGGATT
B6: ACACGUA (DNA:RNA)
RNA: B1 RNA with U25A, A26C, U27A, A29G, C30U
DNA 1: CAATCTGAATTCCGGTCTCCC
DNA 2: TGGTGGCTACGACGGGATT
B7: UUCGCCA (DNA:RNA)
RNA: B1 RNA with A26U, U27C, C28G, A29C
DNA 1: CAATCTGAATTCCGGTCTCCC
DNA 2: TGGTGGCTACGACGGGATT
B8: GGCCCCG (DNA:RNA)
RNA: B1 RNA with U25G, A26G, U27C, A29C, A31G
DNA 1: CAATCTGAATTCCGGTCTCCC
DNA 2: TGGTGGCTACGACGGGATT
B9: AGUUGCA (DNA:RNA)
RNA: B1 RNA with U25A, A26G, C28U, A29G
DNA 1: CAATCTGAATTCCGGTCTCCC
DNA 2: TGGTGGCTACGACGGGATT
B10: CGUGACC (DNA:RNA)
RNA: B1 RNA with U25C, A26G, C28G, A31C
DNA 1: CAATCTGAATTCCGGTCTCCC
DNA 2: TGGTGGCTACGACGGGATT
B11: CCCGUAA (DNA:RNA)
RNA: B1 RNA with U25C, A26C, U27C, C28G, A29U, C30A
DNA 1: CAATCTGAATTCCGGTCTCCC
DNA 2: TGGTGGCTACGACGGGATT
B12: UCCAUAG (DNA:RNA)
RNA: B1 RNA with A26C, U27C, C28A, A29U, C30A, A31G
DNA 1: CAATCTGAATTCCGGTCTCCC
DNA 2: TGGTGGCTACGACGGGATT
B13: AACUGGU (DNA:RNA)
RNA: B1 RNA with U25A, U27C, C28U, A29G, C30G, A31U
DNA 1: CAATCTGAATTCCGGTCTCCC
DNA 2: TGGTGGCTACGACGGGATT
B14: AUGAUGA (DNA:RNA)
RNA: B1 RNA with U25A, A26U, U27G, C28A, A29U, C30G
DNA 1: CAATCTGAATTCCGGTCTCCC
DNA 2: TGGTGGCTACGACGGGATT
B15: CCUUAAU (DNA:RNA)
RNA: B1 RNA with U25C, A26C, C28U, C30A, A31U
DNA 1: CAATCTGAATTCCGGTCTCCC
DNA 2: TGGTGGCTACGACGGGATT
B16: ACUCCAG (DNA:RNA)
RNA: B1 RNA with U25A, A26C, A29C, C30A, A31G
DNA 1: CAATCTGAATTCCGGTCTCCC
DNA 2: TGGTGGCTACGACGGGATT
B17: UUCCGUA (DNA:RNA)
RNA: B1 RNA with A26U, U27C, A29G, C30U
DNA 1: CAATCTGAATTCCGGTCTCCC
DNA 2: TGGTGGCTACGACGGGATT
B18: CGGUCAA (DNA:RNA)
RNA: B1 RNA with U25C, A26G, U27G, C28U, A29C, C30A
DNA 1: CAATCTGAATTCCGGTCTCCC
DNA 2: TGGTGGCTACGACGGGATT
B19: ACAUAUU (DNA:RNA)
RNA: B1 RNA with U25A, A26C, U27A, C28U, C30U, A31U
DNA 1: CAATCTGAATTCCGGTCTCCC
DNA 2: TGGTGGCTACGACGGGATT
B20: UAGAGGA (DNA:RNA)
RNA: B1 RNA with U27G, C28A, A29G, C30G
DNA 1: CAATCTGAATTCCGGTCTCCC
DNA 2: TGGTGGCTACGACGGGATT
B21: CACCUCA (DNA:RNA)
RNA: B1 RNA with U25C, U27C, A29U
DNA 1: CAATCTGAATTCCGGTCTCCC
DNA 2: TGGTGGCTACGACGGGATT
B22: GCCACCU (DNA:RNA)
RNA: B1 RNA with U25G, A26C, U27C, C28A, A29C, A31U
DNA 1: CAATCTGAATTCCGGTCTCCC
DNA 2: TGGTGGCTACGACGGGATT
B23: CUCUGGA (DNA:RNA)
RNA: B1 RNA with U25C, A26U, U27C, C28U, A29G, C30G
DNA 1: CAATCTGAATTCCGGTCTCCC
DNA 2: TGGTGGCTACGACGGGATT
B24: GCUGAAU (DNA:RNA)
RNA: B1 RNA with U25G, A26C, C28G, C30A, A31U
DNA 1: CAATCTGAATTCCGGTCTCCC
DNA 2: TGGTGGCTACGACGGGATT
B25: UUGGUGU (DNA:RNA)
RNA: B1 RNA with A26U, U27G, C28G, A29U, C30G, A31U
DNA 1: CAATCTGAATTCCGGTCTCCC
DNA 2: TGGTGGCTACGACGGGATT
B26: UCGUAAC (DNA:RNA)
RNA: B1 RNA with A26C, U27G, C28U, C30A, A31C
DNA 1: CAATCTGAATTCCGGTCTCCC
DNA 2: TGGTGGCTACGACGGGATT
B27: CGUUAGA (DNA:RNA)
RNA: B1 RNA with U25C, A26G, C28U, C30G
DNA 1: CAATCTGAATTCCGGTCTCCC
DNA 2: TGGTGGCTACGACGGGATT
B28: GGUCCGC (DNA:RNA)
RNA: B1 RNA with U25G, A26G, A29C, C30G, A31C
DNA 1: CAATCTGAATTCCGGTCTCCC
DNA 2: TGGTGGCTACGACGGGATT
B29: GGACCCC (DNA:RNA)
RNA: B1 RNA with U25G, A26G, U27A, A29C, A31C
DNA 1: CAATCTGAATTCCGGTCTCCC
DNA 2: TGGTGGCTACGACGGGATT
B30: GUCCCAC (DNA:RNA)
RNA: B1 RNA with U25G, A26U, U27C, A29C, C30A, A31C
DNA 1: CAATCTGAATTCCGGTCTCCC
DNA 2: TGGTGGCTACGACGGGATT
B31: GGAUAAU (DNA:RNA)
RNA: B1 RNA with U25G, A26G, U27A, C28U, C30A, A31U
DNA 1: CAATCTGAATTCCGGTCTCCC
DNA 2: TGGTGGCTACGACGGGATT

molecular target: T1, RBFOX1 RRM RbFoxmut (Fox-RRM*); assay: EMSA; HiTS-Eq, 1 nM pool, 10 min; buffer printed only for the single-RNA assays: 10 mM Tris pH 7.5, 150 mM NaCl, 3.4 mM EDTA, 0.001% NP-40, 30 C; settings: tags: His6 N-terminal (pET28a); label: 5' 32P
How it was run: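 A pool of RNA with 7 randomized nucleotides, 5′-radiolabelled and with DNA-annealed flanks, was equilibrated at 1 nM for 10 min in 50 µL with purified RbFox RRM, wild type or mutant, across increasing protein concentrations. Free RNA was separated by 8% native PAGE, excised, reverse-transcribed, barcoded by PCR and sequenced. Relative association constants were obtained from read-count changes of each RNA species versus the control reaction and normalised to the cognate motif.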

Row | Binder | binding signal
1 | B1 | 0.084 KA relative to UGCAUGU
2 | B2 | 0.117 KA relative to UGCAUGU
3 | B3 | 0.116 KA relative to UGCAUGU
4 | B4 | 0.117 KA relative to UGCAUGU
5 | B5 | 0.0449 KA relative to UGCAUGU
6 | B6 | 0.14 KA relative to UGCAUGU
7 | B7 | 0.1 KA relative to UGCAUGU
8 | B8 | 0.127 KA relative to UGCAUGU
9 | B9 | 0.174 KA relative to UGCAUGU
10 | B10 | 0.101 KA relative to UGCAUGU
11 | B11 | 0.0904 KA relative to UGCAUGU
12 | B12 | 0.12 KA relative to UGCAUGU
13 | B13 | 0.113 KA relative to UGCAUGU
14 | B14 | 0.105 KA relative to UGCAUGU
15 | B15 | 0.0901 KA relative to UGCAUGU
16 | B16 | 0.106 KA relative to UGCAUGU

Row | Binder | binding signal
17 | B17 | 0.115 KA relative to UGCAUGU
18 | B18 | 0.0558 KA relative to UGCAUGU
19 | B19 | 0.107 KA relative to UGCAUGU
20 | B20 | 0.0732 KA relative to UGCAUGU
21 | B21 | 0.128 KA relative to UGCAUGU
22 | B22 | 0.0541 KA relative to UGCAUGU
23 | B23 | 0.0625 KA relative to UGCAUGU
24 | B24 | 0.0601 KA relative to UGCAUGU
25 | B25 | 0.168 KA relative to UGCAUGU
26 | B26 | 0.0862 KA relative to UGCAUGU
27 | B27 | 0.118 KA relative to UGCAUGU
28 | B28 | 0.128 KA relative to UGCAUGU
29 | B29 | 0.0627 KA relative to UGCAUGU
30 | B30 | 0.0578 KA relative to UGCAUGU
31 | B31 | 0.0888 KA relative to UGCAUGU
